Laboratory results reported in PubChem BioAssay AID1159614 (National Center for Advancing Translational Sciences (NCATS), 2016).
Hit rate of the full screen: of about 45,000 compounds, about 65 (0.1%) were called active. Calls follow the shape of the dose curve; as a rule, active = well fitted activation curve with a large enough effect; inconclusive = small, poorly fitted or top-dose-only effect; inactive = no such curve, though single readings can be large or run the other way. Some of the results follow.

Target: Galactocerebrosidase (Homo sapiens) (UniProt P54803)
Assay: A Novel Cell-Based Assay to Identify Small Molecules for B -Galactocerebrosidase; also: 0% is about no effect; nearly all actives have a fitted effect of over 65% in size
Settings: 145M-Twi-hGALC-G270D cells (Twitcher mouse brain line with human GALC G270D), HMU-beta-Gal fluorescence, 48 h; series mostly up to 57.5 µM; activation: at the top concentration
How it was run: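 Fluorescence readout: HMU-β-gal cleavage by mutant GALC (0.1 mM final, citrate/phosphate pH 5.2 with 1 mg/mL taurocholate), stopped with carbonate/bicarbonate plus Triton X-100. Cells: murine Twitcher 145M-Twi expressing human G270D GALC; qHTS for activators.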

Sequence of UniProt P54803 (P54803 whole entry, looked up): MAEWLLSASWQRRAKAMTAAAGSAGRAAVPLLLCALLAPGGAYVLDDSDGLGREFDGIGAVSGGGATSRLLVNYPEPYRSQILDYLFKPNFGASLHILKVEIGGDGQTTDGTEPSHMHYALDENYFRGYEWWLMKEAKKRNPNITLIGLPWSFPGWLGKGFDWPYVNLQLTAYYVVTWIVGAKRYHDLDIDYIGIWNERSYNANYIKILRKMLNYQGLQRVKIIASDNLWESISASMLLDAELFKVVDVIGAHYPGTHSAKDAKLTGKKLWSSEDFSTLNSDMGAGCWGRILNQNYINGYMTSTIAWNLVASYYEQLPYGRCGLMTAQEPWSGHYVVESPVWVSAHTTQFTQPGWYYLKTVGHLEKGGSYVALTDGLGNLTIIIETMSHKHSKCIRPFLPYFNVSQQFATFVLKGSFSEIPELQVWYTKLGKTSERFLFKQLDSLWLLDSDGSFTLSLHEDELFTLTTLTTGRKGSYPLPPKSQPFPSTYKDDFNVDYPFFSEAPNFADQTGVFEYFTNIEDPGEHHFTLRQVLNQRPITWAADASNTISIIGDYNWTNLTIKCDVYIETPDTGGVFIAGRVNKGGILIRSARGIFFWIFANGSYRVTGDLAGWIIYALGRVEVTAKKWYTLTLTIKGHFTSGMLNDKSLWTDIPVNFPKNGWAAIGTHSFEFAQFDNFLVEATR

Compound	activation
CC1CCC(Nc2nc3c(-c4ccc(Cl)cc4)nnn3c3ccccc23)CC1 (configuration not stated)	inactive: -6.32%
Cc1ccc(Cn2cc(CCC(=O)NC3CCC(C)CC3)c3ccccc32)cc1 (configuration not stated)	inactive: -8.35%
CC(=O)c1ccc(NC(=O)CN2C(=O)CCc3ccccc32)cc1	inactive: -17.9%
CC(=O)/C=C/C=C1/C2CCC(C2)C1(C)C (configuration not stated)	inactive: -11.9%
Cc1ccc2occ(CC(=O)N(Cc3ccccc3Cl)C3CCS(=O)(=O)C3)c2c1 (configuration not stated)	inactive: -11.6%
CCOC(=O)c1cccc(NC(=O)NCc2cccn2Cc2ccccc2)c1	inactive: -1.02%
Cn1c(=O)oc2cc(S(=O)(=O)N3CCCC(C(=O)NCCc4ccc(Cl)cc4)C3)ccc21 (configuration not stated)	inactive: -15.1%
COc1ccccc1CNS(=O)(=O)c1ccc2c(c1)NC(=O)C(C)C(=O)N2 (configuration not stated)	inactive: -6.75%
CC(=O)Nc1ccc(/C=C/c2nc(-c3ccccc3O)n(-c3ccccc3)n2)cc1	inactive: -11.9%
O=C(NCc1ccccc1)c1cc2sccc2n1Cc1ccc(Cl)cc1	inactive: -17.3%
COC(=O)c1ccccc1NC(=O)Cn1c(CCC(=O)O)ccc1-c1cccs1	inactive: -10.5%
CCCCSc1nc(-c2ccc(OC)cc2)ccc1C#N	inactive: -11.7%
Cc1ccc(-c2nc(-c3cc4c([nH]c3=O)CC(C)(C)CC4=O)sc2C)cc1	inactive: -7.55%
O=C(Cn1cc(SCc2ccc(C(F)(F)F)cc2)c2ccccc21)N1CCOCC1	inactive: -12.8%
Cc1cccc(-c2nc(C)c(CCNC(=O)C(=O)Nc3cccc(Cl)c3C)s2)c1	inactive: -19.3%
O=C1CCC(N2C(=O)c3ccccc3C2=O)C(=O)N1 (configuration not stated)	inactive: -19.7%
CCOc1ccc(N(C)C(=O)CS(=O)(=O)c2cccc3nsnc23)cc1	inactive: -20.9%
COC(=O)CSc1ncc2c(n1)-c1ccccc1N(Cc1ccccc1C)S2(=O)=O	inactive: -5.01%
O=C1NCCN1CCN1CCC(c2cn(-c3ccc(F)cc3)c3ccc(Cl)cc23)CC1	inactive: -27.4%
CCC(=O)N1CCc2cc(S(=O)(=O)CCC(=O)Nc3ccc(OC(F)(F)F)cc3)ccc21	inactive: -14.4%
COc1ccc(CC(=O)Nc2sc3c(c2C(=O)Nc2cccc(Cl)c2)CCCCC3)cc1	inactive: -13.3%
COc1ccc2nc3oc(C(=O)N4CCN(c5cc(C)ccc5C)CC4)cc3cc2c1	inactive: 4.17%
CC(C)Oc1ccc(CNC(=O)CCCN2C(=O)CCn3nc(-c4cccn4C)cc32)cc1	inactive: -9.84%
COc1ccccc1N1CCN(C(=O)C(CCSC)NS(=O)(=O)c2ccc3c(c2)oc(=O)n3C)CC1 (configuration not stated)	inactive: 6.24%
CCc1ccc(NCc2cc3ccc(OC)cc3n(CC(=O)Nc3ccc(F)cc3F)c2=O)cc1	inactive: -16.9%
CCC(=O)N1c2ccccc2CC1C(=O)N1CCN(c2cccc(Cl)c2)CC1 (configuration not stated)	inactive: -12.7%
O=C(c1ccco1)n1nc(-c2ccccc2)nc1NCc1ccc(Cl)cc1	inactive: -1.89%
